Reference: the supplement of paper PMC4604168 (melanoma cell lines)
Some of the results follow. Repeats are few or missing, and single values can be far off.

Assays:
Experiment in all cases: cell count relative to DMSO control; melanoma cells; higher = more viable cells
Details in all cases: library dose: low library concentration; 72 h
[1] = tested on: MZ2-MEL
[2] = tested on: MeWo
[3] = tested on: RPMI7951
[4] = tested on: RVH-421
[5] = tested on: SkMel28
[6] = tested on: SkMel2
[7] = tested on: SkMel30
[8] = tested on: UACC62
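Also: cell number obtained by counting DAPI-stained nuclei in high-throughput microscope images with image analysis software, screen run in 1,536-well plates.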

Row | Structure (SMILES) | cell count [1] | cell count [2] | cell count [3] | cell count [4] | cell count [5] | cell count [6] | cell count [7] | cell count [8]
1 | C[C@]1(O)C[C@@H](c2nc(-c3ccc4ccc(-c5ccccc5)nc4c3)c3c(N)nccn32)C1 + Clc1ccc(Nc2nnc(Cc3ccncc3)c3ccccc23)cc1 [vatalanib] (first compound 0.4 µM, partner dose 2 µM) | 94.1% | 71.2% | 94.4% | 89.7% | 96% | 82.6% | 98.9% | 93.4%
2 | CCN(CC)CCNC(=O)c1c(C)[nH]c(/C=C2\C(=O)Nc3ccc(F)cc32)c1C [sunitinib] + Nc1ccn([C@@H]2O[C@H](CO)[C@@H](O)C2(F)F)c(=O)n1 [gemcitabine] (first compound 0.4 µM, partner dose 0.0004 µM) | 99.2% | 86.9% | 111% | 91.6% | 106% | 121% | 85.3% | 104%
3 | CCN(CC)CCNC(=O)c1c(C)[nH]c(/C=C2\C(=O)Nc3ccc(F)cc32)c1C [sunitinib] + Cn1nnc2c(C(N)=O)ncn2c1=O [temozolomide] (first compound 0.4 µM, partner dose 2 µM) | 102% | 91% | 120% | 135% | 103% | 111% | 68.4% | 70%
4 | C[C@]1(O)C[C@@H](c2nc(-c3ccc4ccc(-c5ccccc5)nc4c3)c3c(N)nccn32)C1 + COCC[n+]1c2c(n(Cc3cnccn3)c1C)C(=O)c1ccccc1C2=O [YM155] (first compound 0.4 µM, partner dose 0.0004 µM) | 65.8% | 93.2% | 83.9% | 105% | 96.4% | 87% | 101% | 90.8%
5 | COc1cc([C@@H]2c3cc4c(cc3[C@@H](O[C@@H]3O[C@@H]5CO[C@@H](C)O[C@H]5[C@H](O)[C@H]3O)[C@H]3COC(=O)[C@H]23)OCO4)cc(OC)c1O [etoposide] + CN(c1ncccc1CNc1nc(Nc2ccc3c(c2)CC(=O)N3)ncc1C(F)(F)F)S(C)(=O)=O [PF562271] (first compound 0.02 µM, partner dose 0.08 µM) | 88% | 94.5% | 89.8% | 99.5% | 72.8% | 82.6% | 110% | 71.9%
6 | COc1cc([C@@H]2c3cc4c(cc3[C@@H](O[C@@H]3O[C@@H]5CO[C@@H](C)O[C@H]5[C@H](O)[C@H]3O)[C@H]3COC(=O)[C@H]23)OCO4)cc(OC)c1O [etoposide] + CCCCCCCCCCCCCCCCCCOP(=O)([O-])OC1CC[N+](C)(C)CC1 [Perifosine] (first compound 0.02 µM, partner dose 0.4 µM) | 94.2% | 105% | 100% | 108% | 88.9% | 94.7% | 82% | 95.9%
7 | COc1cc([C@@H]2c3cc4c(cc3[C@@H](O[C@@H]3O[C@@H]5CO[C@@H](C)O[C@H]5[C@H](O)[C@H]3O)[C@H]3COC(=O)[C@H]23)OCO4)cc(OC)c1O [etoposide] + Cn1sc(=O)n(Cc2ccccc2)c1=O [TDZD-8] (first compound 0.02 µM, partner dose 0.4 µM) | 90.1% | 93.7% | 97.7% | 95.5% | 88.9% | 87.9% | 89.8% | 85.6%
8 | COc1cc([C@@H]2c3cc4c(cc3[C@@H](O[C@@H]3O[C@@H]5CO[C@@H](C)O[C@H]5[C@H](O)[C@H]3O)[C@H]3COC(=O)[C@H]23)OCO4)cc(OC)c1O [etoposide] + CN1CCN(c2ccc3nc(-c4c(N)c5c(F)cccc5[nH]c4=O)[nH]c3c2)CC1 [Dovitinib] (first compound 0.02 µM, partner dose 0.1 µM) | 86.6% | 88.8% | 94.3% | 99.8% | 90% | 92.2% | 101% | 85.7%
9 | COc1cc([C@@H]2c3cc4c(cc3[C@@H](O[C@@H]3O[C@@H]5CO[C@@H](C)O[C@H]5[C@H](O)[C@H]3O)[C@H]3COC(=O)[C@H]23)OCO4)cc(OC)c1O [etoposide] + Cc1ccc(Nc2nccc(N(C)c3ccc4c(C)n(C)nc4c3)n2)cc1S(N)(=O)=O [Pazopanib] (first compound 0.02 µM, partner dose 0.4 µM) | 71.1% | 101% | 99.4% | 96.5% | 99.2% | 97.1% | 72.7% | 82.6%
10 | Cn1cnc2c(F)c(Nc3ccc(Br)cc3Cl)c(C(=O)NOCCO)cc21 [selumetinib] + CC(=O)c1c(C)c2cnc(Nc3ccc(N4CCNCC4)cn3)nc2n(C2CCCC2)c1=O [palbociclib] (first compound 0.015 µM, partner dose 0.04 µM) | 66.6% | 73% | 67.4% | 68.7% | 81.1% | 64.8% | 29.5% | 71.2%
